According to a collection of fitness landscapes (doi:10.1126/science.1257360):
The other results are listed elsewhere or left out.

B1: PhoQ; a variant is named by its letters at X, in order, P23837 (parent)
chain: MKKLLRLFFPLSLRVRFLLATAAVVLVLSLAYGMVALIGYSVSFDKTTFRLLRGESNLFYTLAKWENNKLHVELPENIDKQSPTMTLIYDENGQLLWAQRDVPWLMKMIQPDWLKSNGFHEIEADVNDTSLLLSGDHSIQQQLQEVREDDDDAEMTHSVAVNVYPATSRMPKLTIVVVDTIPVELKSSYMVWSWFIYVLSANLLLVIPLLWVAAWWSLRPIEALAKEVRELEEHNRELLNPATTRELTSLVRNLNRLLKSERERYDKYRTTLTDLTHSLKTPLXXLQXXLRSLRSEKMSVSDAEPVMLEQISRISQQIGYYLHRASMRGGTLLSRELHPVAPLLDNLTSALNKVYQRKGVNISLDISPEISFVGEQNDFVEVMGNVLDNACKYCLEFVEISARQTDEHLYIVVEDDGPGIPLSKREVIFDRGQRVDTLRPGQGVGLAVAREITEQYEGKIVAGESMLGGARMEVIFGRQHSAPKDE

Variants of: B1
Experiment: enrichment ratio after two sorts for PhoP signalling (ratio (wild type AVST 3.29)); higher = more functional
Settings: with PhoP (E. coli)

Row | Variant | enrichment ratio
1 | DIVA | ≤ 0.25
2 | FECI | 3.72
3 | VAPM | ≤ 0.25
4 | VRHG | ≤ 0.25
5 | VHLL | 0.26
6 | LQWR | ≤ 0.25
7 | NRVE | ≤ 0.25
8 | FRIS | ≤ 0.25
9 | PYKL | ≤ 0.25
10 | SVCK | 9.8
11 | YYSE | ≤ 0.25
12 | GVKS | ≤ 0.25
13 | FYMS | ≤ 0.25
14 | NWHQ | ≤ 0.25
15 | MMCV | 4.31
16 | RKAG | ≤ 0.25
17 | NSPD | 1.34
18 | FYGS | ≤ 0.25
19 | MRGK | ≤ 0.25
20 | YWEM | ≤ 0.25
21 | ENGN | ≤ 0.25
22 | WFNF | ≤ 0.25
23 | FRYG | ≤ 0.25
24 | LQSN | ≤ 0.25
25 | RVSL | ≤ 0.25
26 | IWNW | ≤ 0.25

Row | Variant | enrichment ratio
27 | FCFE | ≤ 0.25
28 | PPHM | ≤ 0.25
29 | SIQQ | 5.83
30 | VRDT | ≤ 0.25
31 | VNFF | ≤ 0.25
32 | FDKH | ≤ 0.25
33 | ICEK | ≤ 0.25
34 | GLMH | ≤ 0.25
35 | KTWY | ≤ 0.25
36 | NCII | ≤ 0.25
37 | QIDW | ≤ 0.25
38 | TDKY | ≤ 0.25
39 | NCIS | ≤ 0.25
40 | DGLT | ≤ 0.25
41 | NDYS | ≤ 0.25
42 | FLAQ | ≤ 0.25
43 | KHRI | ≤ 0.25
44 | SFRD | ≤ 0.25
45 | GMHR | ≤ 0.25
46 | EMYN | ≤ 0.25
47 | AVRW | ≤ 0.25
48 | TIRC | ≤ 0.25
49 | PHDY | ≤ 0.25
50 | LGFL | 6.03
51 | TRPN | ≤ 0.25
52 | IWAH | ≤ 0.25

Row | Variant | enrichment ratio
53 | NIIW | ≤ 0.25
54 | YCWK | ≤ 0.25
55 | YIHV | ≤ 0.25
56 | LMNV | ≤ 0.25
57 | FQSV | ≤ 0.25
58 | KPWE | ≤ 0.25
59 | FVNN | ≤ 0.25
60 | TQKT | ≤ 0.25
61 | FGME | ≤ 0.25
62 | IMKW | ≤ 0.25
63 | FSKA | ≤ 0.25
64 | TCIP | ≤ 0.25
65 | PCIV | ≤ 0.25
66 | ENCV | ≤ 0.25
67 | SLND | ≤ 0.25
68 | HRLR | ≤ 0.25
69 | WKQA | ≤ 0.25
70 | YITG | 0.471
71 | NNWG | ≤ 0.25
72 | LHVV | ≤ 0.25
73 | GEYF | 10.1
74 | DHWS | ≤ 0.25
75 | GMQQ | ≤ 0.25
76 | SMDP | ≤ 0.25
77 | FRAG | ≤ 0.25
78 | AIVS | 12.6

Row | Variant | enrichment ratio
79 | IIFC | ≤ 0.25
80 | GTRY | ≤ 0.25
81 | RYVQ | ≤ 0.25
82 | KHYQ | ≤ 0.25
83 | YSWL | ≤ 0.25
84 | RYSC | ≤ 0.25
85 | PVDR | ≤ 0.25
86 | YDVC | ≤ 0.25
87 | RKWY | ≤ 0.25
88 | YKSP | ≤ 0.25
89 | SPPT | ≤ 0.25
90 | HLEW | ≤ 0.25
91 | IMTM | ≤ 0.25
92 | VQNW | ≤ 0.25
93 | YLGK | ≤ 0.25
94 | FLWD | ≤ 0.25
95 | WEDC | ≤ 0.25
96 | CLCL | ≤ 0.25
97 | FMRL | ≤ 0.25
98 | FFPW | ≤ 0.25
99 | MCHW | ≤ 0.25
100 | NLRC | ≤ 0.25
101 | YKHF | ≤ 0.25
102 | YWCC | ≤ 0.25
103 | AFQD | ≤ 0.25
104 | KPCN | ≤ 0.25

Row | Variant | enrichment ratio
105 | EQVW | ≤ 0.25
106 | RGKV | ≤ 0.25
107 | WTVM | ≤ 0.25
108 | FKLG | ≤ 0.25
109 | KDDK | ≤ 0.25
110 | WVAA | ≤ 0.25
111 | MKGP | ≤ 0.25
112 | KHTM | ≤ 0.25
113 | FQAW | ≤ 0.25
114 | FFAK | ≤ 0.25
115 | TAIS | 0.325
116 | TINV | 7.66
117 | HLRH | ≤ 0.25
118 | QKMC | ≤ 0.25
119 | ADNR | ≤ 0.25
120 | VSFD | 0.544
121 | GWNL | ≤ 0.25
122 | WKIG | ≤ 0.25
123 | LINP | ≤ 0.25
124 | PTWH | ≤ 0.25
125 | LNQE | ≤ 0.25
126 | NFST | ≤ 0.25
127 | ELTL | ≤ 0.25
128 | PFMW | ≤ 0.25
129 | PQAH | ≤ 0.25
130 | DMPR | 2.06

Row | Variant | enrichment ratio
131 | YHQA | ≤ 0.25
132 | PSSN | ≤ 0.25
133 | FQDT | ≤ 0.25
134 | FQAV | ≤ 0.25
135 | DTGF | ≤ 0.25
136 | MEIK | ≤ 0.25
137 | SGVG | 5.22
138 | GILK | 5.55
139 | APNQ | ≤ 0.25
140 | EKHH | ≤ 0.25
141 | ILLS | ≤ 0.25
142 | MSKA | ≤ 0.25
143 | HQEI | ≤ 0.25
144 | LGNP | ≤ 0.25
145 | VINR | ≤ 0.25
146 | FEGQ | ≤ 0.25
147 | DHKP | ≤ 0.25
148 | KYVT | ≤ 0.25
149 | TRGC | ≤ 0.25
150 | TKTE | ≤ 0.25
151 | TGWR | ≤ 0.25
152 | SGLN | 10.9
153 | NVQH | ≤ 0.25
